# Assay results: the supplement of paper PMC10037445
# ± gives the standard deviation of the averaged measurements. In all, about 2,900 compounds were measured (“NF-kB SEAP reporter activity, fold change vs agonist alone”: median about 0.99, highest 2% from about 2.6 on). Some of the results follow.
# Assays:
# RAW-Dual [1] = test: NF-kB SEAP reporter activity, fold change vs agonist alone; cytotoxicity flag (confluency mask): not cytotoxic; higher = enhanced NF-kB activity
# Procedure, shortened: (§1)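 RAW-Dual macrophages (50,000 cells/well in DMEM, 384-well plates) received 50 nL of library stock by pin tool, then a PRR agonist 1 h later, and were kept at 37 °C, 5% CO2. After 20 hours, supernatant was read for IRF by QuantiLuc luminescence and for NF-κB by QuantiBlue absorbance at 620 nm. Reporter activity is fold change over agonist-alone wells. Cytotoxic wells had IncuCyte confluency below 70% of agonist controls in both mask sets.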
# RAW-Dual [2] = test: NF-kB SEAP reporter activity, fold change vs agonist alone; higher = enhanced NF-kB activity
# Procedure, shortened: as §1
# RAW-Dual [3] = test: NF-kB SEAP reporter activity, fold change vs agonist alone; cytotoxicity flag (confluency mask): cytotoxic (confluency <70% of control); higher = enhanced NF-kB activity
# Procedure, shortened: as §1
# [4] = agonist: ODN 1826 (TLR9) 0.5 ug/mL
# [5] = agonist: Pam2CSK4 (TLR2/6) 0.1 ug/mL
# [6] = agonist: Pam3CSK4 (TLR2/1) 0.1 ug/mL
# [7] = library stock concentration (final ~1000-fold dilution): 10 mM, cytotoxicity flag (confluency mask): not cytotoxic, agonist: Imiquimod (TLR7) […]
# [8] = library stock concentration (final ~1000-fold dilution): 10 mM, cytotoxicity flag (confluency mask): not cytotoxic, agonist: MPLA (TLR4) […]
# [9] = library stock concentration (final ~1000-fold dilution): 10 mM, cytotoxicity flag (confluency mask): cytotoxic (confluency <70% of control), agonist: Imiquimod (TLR7) […]
# [10] = library stock concentration (final ~1000-fold dilution): 10 mM, cytotoxicity flag (confluency mask): cytotoxic (confluency <70% of control), agonist: MPLA (TLR4) […]
compound,measurement,setting,value
CC(C)(Sc1ccncc1-c1ccc(C#N)c2ccccc12)C(=O)O (library stock concentration (final ~1000-fold dilution): 10 mM),NF-kB SEAP reporter activity,RAW-Dual [1]; agonist: LPS (TLR4) 0.1 ug/mL,1.08
same,NF-kB SEAP reporter activity,RAW-Dual [1]; [4],0.917
same,NF-kB SEAP reporter activity,RAW-Dual [1]; [5],1.02
same,NF-kB SEAP reporter activity,RAW-Dual [1]; [6],1.04
CC(C)(Sc1ccncc1-c1ccc(C#N)c2ccccc12)C(=O)O,NF-kB SEAP reporter activity,RAW-Dual [2]; [7],0.92
same,NF-kB SEAP reporter activity,RAW-Dual [2]; [8],1
CC(C)(C)S(=O)(=O)c1ccc2nccc(Nc3n[nH]c4ccc(F)cc34)c2c1,NF-kB SEAP reporter activity,RAW-Dual [2]; [7],0.893 ± 0.12
same,NF-kB SEAP reporter activity,RAW-Dual [2]; [8],0.869 ± 0.056
CC(C)(C)S(=O)(=O)c1ccc2nccc(Nc3n[nH]c4ccc(F)cc34)c2c1 (library stock concentration (final ~1000-fold dilution): 10 mM),NF-kB SEAP reporter activity,RAW-Dual [1]; agonist: LPS (TLR4) 0.1 ug/mL,1.07 ± 0.071
same,NF-kB SEAP reporter activity,RAW-Dual [1]; [4],0.928 ± 0.1
same,NF-kB SEAP reporter activity,RAW-Dual [1]; [5],0.7208 ± 0.0011
same,NF-kB SEAP reporter activity,RAW-Dual [1]; [6],1.1 ± 0.022
CC=C1C(=O)CC2C3CCC4=CC(=O)CCC4(C)C3CCC12C (stereo not drawn),NF-kB SEAP reporter activity,RAW-Dual [2]; [7],0.402
same,NF-kB SEAP reporter activity,RAW-Dual [2]; [8],1.04
CC=C1C(=O)CC2C3CCC4=CC(=O)CCC4(C)C3CCC12C (stereo not drawn) (library stock concentration (final ~1000-fold dilution): 10 mM),NF-kB SEAP reporter activity,RAW-Dual [1]; agonist: LPS (TLR4) 0.1 ug/mL,0.69
same,NF-kB SEAP reporter activity,RAW-Dual [1]; [4],0.408
same,NF-kB SEAP reporter activity,RAW-Dual [1]; [5],0.841
same,NF-kB SEAP reporter activity,RAW-Dual [1]; [6],0.508
CC(C)c1cc2c(N3CCN(C4=NCC(C)(C)S4)CC3)ncnc2s1,NF-kB SEAP reporter activity,RAW-Dual [2]; [7],0.617
same,NF-kB SEAP reporter activity,RAW-Dual [2]; [8],1.02
CC(C)c1cc2c(N3CCN(C4=NCC(C)(C)S4)CC3)ncnc2s1 (library stock concentration (final ~1000-fold dilution): 10 mM),NF-kB SEAP reporter activity,RAW-Dual [1]; agonist: LPS (TLR4) 0.1 ug/mL,1.4
same,NF-kB SEAP reporter activity,RAW-Dual [1]; [4],0.898
same,NF-kB SEAP reporter activity,RAW-Dual [1]; [5],0.929
same,NF-kB SEAP reporter activity,RAW-Dual [1]; [6],0.898
CCC1OC(=O)C(C)C(OC2CC(C)(OC)C(O)C(C)O2)C(C)C(OC2OC(C)CC(N(C)C)C2O)C(C)(OC)CC(C)C(=O)C(C)C(O)C1(C)O (stereo not drawn),NF-kB SEAP reporter activity,RAW-Dual [2]; [7],0.947
same,NF-kB SEAP reporter activity,RAW-Dual [2]; [8],0.96
CCC1OC(=O)C(C)C(OC2CC(C)(OC)C(O)C(C)O2)C(C)C(OC2OC(C)CC(N(C)C)C2O)C(C)(OC)CC(C)C(=O)C(C)C(O)C1(C)O (stereo not drawn) (library stock concentration (final ~1000-fold dilution): 10 mM),NF-kB SEAP reporter activity,RAW-Dual [1]; agonist: LPS (TLR4) 0.1 ug/mL,0.99
same,NF-kB SEAP reporter activity,RAW-Dual [1]; [4],0.929
same,NF-kB SEAP reporter activity,RAW-Dual [1]; [5],0.942
same,NF-kB SEAP reporter activity,RAW-Dual [1]; [6],0.932
Cc1cncc(CN2CCC(=C3c4ccc(Cl)cc4CCc4cccnc43)CC2)c1.O=C(O)/C=C/C(=O)O,NF-kB SEAP reporter activity,RAW-Dual [2]; [9],1.02
same,NF-kB SEAP reporter activity,RAW-Dual [2]; [10],0.719
Cc1cncc(CN2CCC(=C3c4ccc(Cl)cc4CCc4cccnc43)CC2)c1.O=C(O)/C=C/C(=O)O (library stock concentration (final ~1000-fold dilution): 10 mM),NF-kB SEAP reporter activity,RAW-Dual [3]; agonist: LPS (TLR4) 0.1 ug/mL,0.652
same,NF-kB SEAP reporter activity,RAW-Dual [3]; [4],0.37
same,NF-kB SEAP reporter activity,RAW-Dual [3]; [5],0.456
same,NF-kB SEAP reporter activity,RAW-Dual [3]; [6],0.408
COc1cccc(CCc2ccccc2OCC(CN(C)C)OC(=O)CCC(=O)O)c1.Cl (stereo not drawn),NF-kB SEAP reporter activity,RAW-Dual [2]; [7],1.22
same,NF-kB SEAP reporter activity,RAW-Dual [2]; [8],1.03
COc1cccc(CCc2ccccc2OCC(CN(C)C)OC(=O)CCC(=O)O)c1.Cl (stereo not drawn) (library stock concentration (final ~1000-fold dilution): 10 mM),NF-kB SEAP reporter activity,RAW-Dual [1]; agonist: LPS (TLR4) 0.1 ug/mL,1.33
same,NF-kB SEAP reporter activity,RAW-Dual [1]; [4],0.733
same,NF-kB SEAP reporter activity,RAW-Dual [1]; [5],1.03
same,NF-kB SEAP reporter activity,RAW-Dual [1]; [6],0.924
Cl.NCCOc1ccc(Cl)cc1C(=O)Nc1ccc([N+](=O)[O-])cc1Cl,NF-kB SEAP reporter activity,RAW-Dual [2]; [7],1.31
same,NF-kB SEAP reporter activity,RAW-Dual [2]; [8],0.949
Cl.NCCOc1ccc(Cl)cc1C(=O)Nc1ccc([N+](=O)[O-])cc1Cl (library stock concentration (final ~1000-fold dilution): 10 mM),NF-kB SEAP reporter activity,RAW-Dual [1]; agonist: LPS (TLR4) 0.1 ug/mL,1.29
same,NF-kB SEAP reporter activity,RAW-Dual [1]; [4],0.59
same,NF-kB SEAP reporter activity,RAW-Dual [1]; [5],0.918
same,NF-kB SEAP reporter activity,RAW-Dual [1]; [6],0.91
CCCCCCCCCCCCCCCCOc1nc2ccc(C)cc2c(=O)o1 (library stock concentration (final ~1000-fold dilution): 2 mM),NF-kB SEAP reporter activity,RAW-Dual [1]; agonist: LPS (TLR4) 0.1 ug/mL,1.26
same,NF-kB SEAP reporter activity,RAW-Dual [1]; [4],1.03
same,NF-kB SEAP reporter activity,RAW-Dual [1]; [5],1.06
same,NF-kB SEAP reporter activity,RAW-Dual [1]; [6],0.981
CCCCCCCCCCCCCCCCOc1nc2ccc(C)cc2c(=O)o1,NF-kB SEAP reporter activity,"RAW-Dual [2]; library stock concentration (final ~1000-fold dilution): 2 mM, cytotoxicity flag (confluency mask): not cytotoxic, agonist: MPLA (TLR4) […]",1.05
CC(C)(C)c1nc(-c2ccc(NC(=O)Nc3cccc(C(F)(F)F)c3)c3ccccc23)c2c(N)nccn12 (library stock concentration (final ~1000-fold dilution): 10 mM),NF-kB SEAP reporter activity,RAW-Dual [3]; agonist: LPS (TLR4) 0.1 ug/mL,0.488
same,NF-kB SEAP reporter activity,RAW-Dual [3]; [4],0.163
same,NF-kB SEAP reporter activity,RAW-Dual [3]; [5],0.0888
same,NF-kB SEAP reporter activity,RAW-Dual [3]; [6],0.136
CC(C)(C)c1nc(-c2ccc(NC(=O)Nc3cccc(C(F)(F)F)c3)c3ccccc23)c2c(N)nccn12,NF-kB SEAP reporter activity,RAW-Dual [2]; [9],0.139
same,NF-kB SEAP reporter activity,RAW-Dual [2]; [10],0.252
CC(C(O)c1ccc(O)cc1)N1CCC(Cc2ccccc2)CC1.CC(C(O)c1ccc(O)cc1)N1CCC(Cc2ccccc2)CC1.O=C(O)C(O)C(O)C(=O)O (stereo not drawn) (library stock concentration (final ~1000-fold dilution): 10 mM),NF-kB SEAP reporter activity,RAW-Dual [1]; agonist: LPS (TLR4) 0.1 ug/mL,1.19
same,NF-kB SEAP reporter activity,RAW-Dual [1]; [4],0.64
same,NF-kB SEAP reporter activity,RAW-Dual [1]; [5],1.04
same,NF-kB SEAP reporter activity,RAW-Dual [1]; [6],0.922
CC(C(O)c1ccc(O)cc1)N1CCC(Cc2ccccc2)CC1.CC(C(O)c1ccc(O)cc1)N1CCC(Cc2ccccc2)CC1.O=C(O)C(O)C(O)C(=O)O (stereo not drawn),NF-kB SEAP reporter activity,RAW-Dual [2]; [7],1.14
same,NF-kB SEAP reporter activity,RAW-Dual [2]; [8],0.926
CCCS(=O)c1ccc2nc(NC(=O)OC)[nH]c2c1 (stereo not drawn),NF-kB SEAP reporter activity,RAW-Dual [2]; [7],1.04
same,NF-kB SEAP reporter activity,RAW-Dual [2]; [8],0.808
CCCS(=O)c1ccc2nc(NC(=O)OC)[nH]c2c1 (stereo not drawn) (library stock concentration (final ~1000-fold dilution): 10 mM),NF-kB SEAP reporter activity,RAW-Dual [1]; agonist: LPS (TLR4) 0.1 ug/mL,1.06
same,NF-kB SEAP reporter activity,RAW-Dual [1]; [4],0.948
same,NF-kB SEAP reporter activity,RAW-Dual [1]; [5],1.05
same,NF-kB SEAP reporter activity,RAW-Dual [1]; [6],1.09
COc1ccc(CC(N)C(=O)NC2C(CO)OC(n3cnc4c(N(C)C)ncnc43)C2O)cc1.Cl.Cl (stereo not drawn),NF-kB SEAP reporter activity,RAW-Dual [2]; [7],0.438
same,NF-kB SEAP reporter activity,RAW-Dual [2]; [8],1.12
